# Assay results from PubChem BioAssay AID330 (DTP/NCI, 2004).
# Toxic doses and inconclusive results are not listed. Not every entry of the source has a single result; some have several. The other results are left out here. The source may hold further records. Results that share an entry are repeats across runs, samples, wells, individuals or studies. Brackets tell where a record comes from. The letters are not those of the source and start again with each entry.
# System: P388 leukemia ip, CD2F1 mice, survival T/C
# Test: NCI In Vivo Anticancer Drug Screen. Data for tumor model P388 Leukemia (intraperitoneal) in CD2F1 (CDF1) mice
# Details: endpoint: median survival time, higher = longer survival
smiles,measurement,setting,value
CCC12C=CCN3CCC4(c5cc(C6c7[nH]c8ccccc8c7CCN7CCCCC67)c(OC)cc5N(C)C4C(O)(C(=O)OC)C1OC(C)=O)C32 (centres undefined),T/C,"dose: 1.0 mg/kg/injection, schedule: Q01DX009 (ip), vehicle: Klucel (hydroxypropylcellulose) (HPC)",111 % of control and 161 % of control
Nc1nncs1,T/C,"dose: 60.0 mg/kg/injection, schedule: Q01DX009 (ip), vehicle: water",102 % of control and 200 % of control
N=C1C=CC2C(=Nc3ccccc3[N+]2=O)N1CCO (centres undefined),T/C,"dose: 120.0 mg/kg/injection, schedule: Q01DX005 (ip), vehicle: saline with Tween-80","100 % of control, 105 % of control, 163 % of control"
Nc1n[n+](-c2ccccc2)no1,T/C,"dose: 12.5 mg/kg/injection, schedule: Q01DX009 (ip), vehicle: water",118 % of control and 150 % of control
COc1cccc2c1C(=O)c1c(O)c3c(c(O)c1C2=O)C[C@@](O)(C(C)=O)C[C@@H]3OC1CC(N)C(O)C(C)O1 (some centres undefined),T/C,"dose: 0.97 mg/kg/injection, schedule: Q04DX003 (ip), vehicle: saline",100 % of control and 153 % of control
same,T/C,"dose: 1.0 mg/kg/injection, schedule: Q04DX003 (ip), vehicle: saline",122 % of control and 156 % of control
same,T/C,"dose: 1.62 mg/kg/injection, schedule: Q04DX003 (ip), vehicle: saline",110 % of control and 166 % of control
CC[C@](O)(C(=O)O)c1cc2n(c(=O)c1CO)Cc1cc3ccccc3nc1-2,T/C,"dose: 16.2 mg/kg/injection, schedule: Q04DX002 (ip), vehicle: saline",114 % of control and 175 % of control
same,T/C,"dose: 27.0 mg/kg/injection, schedule: Q04DX002 (ip), vehicle: saline",111 % of control and 176 % of control
same,T/C,"dose: 75.0 mg/kg/injection, schedule: Q04DX002 (ip), vehicle: saline",92 % of control and 160 % of control
CCC1(O)CC(OC2CC(N(C)C)C(OC3CC(O)C(OC4CCC(=O)C(C)O4)C(C)O3)C(C)O2)c2c(cc3c(c2O)C(=O)c2c(O)ccc(O)c2C3=O)C1C(=O)OC (centres undefined),T/C,"dose: 1.56 mg/kg/injection, schedule: Q01DX009 (ip), vehicle: saline with Tween-80",97 % of control and 191 % of control
C[CH2][Sn]([CH2]C)([N]=C=S)[N]=C=S,T/C,"dose: 12.5 mg/kg/injection, schedule: Q01DX009 (ip), vehicle: saline","93 % of control, 102 % of control, 155 % of control"
same,T/C,"dose: 25.0 mg/kg/injection, schedule: Q01DX009 (ip), vehicle: saline","101 % of control, 102 % of control, 156 % of control"
CNC(=O)OCc1c(COC(=O)NC)c2n(c1C)CCc1ccccc1-2,T/C,"dose: 25.0 mg/kg/injection, schedule: Q01DX009 (ip), vehicle: distilled water + Tween-80",122 % of control and 169 % of control
CC1CC(C)CC(C)C(O)/C(C#N)=C/C=C/CC(C2CCCC2C(=O)O)OC(=O)CC(O)C(C)C1 (centres undefined),T/C,"dose: 2.0 mg/kg/injection, schedule: Q01DX009 (ip), vehicle: Klucel (hydroxypropylcellulose) (HPC)","86 % of control, 169 % of control [sample A] and 86 % of control [sample B] and 86 % of control, 169 % of control [sample C]"
Nc1cccc(S(=O)(=O)Nc2c(N)[nH]c(=S)[nH]c2=O)c1,T/C,"dose: 240.0 mg/kg/injection, schedule: Q01DX005 (ip), vehicle: Klucel (hydroxypropylcellulose) (HPC)","98 % of control, 100 % of control, 166 % of control"
C/C=C\C1OC1(C)c1cc(=O)c2c(C)cc3c(c2o1)C(=O)c1c(O)c(C2CC(C)(N(C)C)C(OC(C)=O)C(C)O2)cc(C2CC(N(C)C)C(O)C(C)O2)c1C3=O (centres undefined),T/C,"dose: 2.0 mg/kg/injection, schedule: Q01DX009 (ip), vehicle: saline + alcohol",98 % of control and 150 % of control
COc1cc2c(c3c1C(=O)c1c(cc4c(c1O)C(OC)CC(C)(O)C4)C3=O)OC1OC2(C)C(O)C(N(C)C)C1O (centres undefined),T/C,"dose: 10.0 mg/kg/injection, schedule: Q01DX009 (ip), vehicle: other",116 % of control and 152 % of control
Cc1c2ccncc2c(CN(CCCl)CCCl)c2c3ccccc3n(C)c12,T/C,"dose: 10.0 mg/kg/injection, schedule: Q01DX005 (ip), vehicle: saline",123 % of control and 153 % of control
COc1cccc2c1C(=O)c1c(O)c3c(c(O)c1C2=O)C[C@@](O)(C(O)CO)C[C@@H]3OC1CC(NCc2ccccc2)C(O)C(C)O1 (some centres undefined),T/C,"dose: 6.25 mg/kg/injection, schedule: Q01DX009 (ip), vehicle: water",106 % of control and 192 % of control
COc1cccc2c1C(=O)c1c(O)c3c(c(O)c1C2=O)C[C@@](O)(C(O)CO)C[C@@H]3OC1CC(NC(=O)C(F)(F)F)C(O)C(C)O1 (some centres undefined),T/C,"dose: 3.13 mg/kg/injection, schedule: Q01DX009 (ip), vehicle: other",123 % of control and 158 % of control
COc1cccc2c1C(=O)c1c(O)c3c(c(O)c1C2=O)C[C@@](O)(/C(CO)=N/NC(=O)c1ccc(Cl)c(Cl)c1)C[C@@H]3OC1CC(N)C(O)C(C)O1 (some centres undefined),T/C,"dose: 12.5 mg/kg/injection, schedule: Q04DX003 (ip), vehicle: water",119 % of control and 159 % of control
CCN1/C(=C/C=C/C=C\C=C\c2sc3ccc4ccccc4c3[n+]2CC)Sc2ccc3ccccc3c21,T/C,"dose: 25.0 mg/kg/injection, schedule: Q04DX002 (ip), vehicle: saline with Tween-80",87 % of control and 157 % of control
COc1cc2c(c(OC)c1OC)-c1ccc(SCc3ccccc3)c(=O)cc1[C@@H](NC(C)=O)CC2,T/C,"dose: 6.25 mg/kg/injection, schedule: Q01DX009 (ip), vehicle: Klucel (hydroxypropylcellulose) (HPC)",105 % of control and 154 % of control
